The supplement of paper PMC10126150
Values marked as one replicate rest on one cluster of the flow cell; about a third of the high ones do not repeat.

Tested on: ATP
Experiment: switch fluorescence ratio, 500 uM ATP over buffer (Cy3 cluster intensity, sum of 5 cycles each) (fold (ratio)); higher = stronger signal-on switching upon ATP binding; sequences stand for … in TCGTCGGCAGCGTCAGATGTGTATAAGAGACAGTTTTTTTTTTTTTTTTTTTTTTTTT…TC
Settings: aptamer strand: ATP DNA aptamer (quencher-CACCTGGGGGAGTATTGCGGAGGAAGG + anchor), 100 nM annealed; ATP concentration: 500 uM; one replicate
Method in brief: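 Values give the fluorescence ratio for each switch-domain sequence, averaged from per-cluster ratios of summed target-cycle to summed buffer-cycle Cy3 intensity. The Cy3-labelled switching-strand clusters sat on a modified Illumina MiSeq flow-cell, were annealed to 100 nM quencher-labelled ATP aptamer, and were imaged in selection buffer, then after 15 min with 500 uM ATP at 22 °C. Five cycles ran with NaOH stripping and re-annealing between them, and clusters outside 100-1000 RFU were excluded.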
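Also: ATP exposure 15 min at 22 °C before imaging.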

Sequence	switch fluorescence ratio
TTAATTGTAA	0.986
CCAGGCTTGC	1.09
TGAAGCAGCA	1.15
TATACACTGT	1.03
ATCCCATCAC	1.1
ACTATAACA	1.04
GTGAATATAT	0.975
CGCCGTGGGG	1.04
TCATAGATAG	1.01
TTTTTACCG	1.08
CCAAAACCGT	1.05
ACAAGGAAAG	0.966
TCTCGCTGTG	1
ATGTGGACCG	0.991
TTTAAGATCC	0.997
GATGCATATG	1.06
GAAACTGGTG	1.01
AGTCTCCTTA	0.951
GACACGCTAA	1.39
CATCTGAAAT	1.19
GTAAACCTCT	1.09
TCGGGGGAGT	0.966
TTACGCTGAC	2.93
ACTAGGCAGC	1.04
TACCGTCAAT	1.83
TGTCGTACAC	1.05

Sequence	switch fluorescence ratio
GCAAGGACCA	1.05
TTAATTTACG	1.06
TTCGTAGTA	1.02
ACCCCTACGG	1.34
AACGTACGCC	1.48
AAGTCGCAAC	1.18
CATGTTACGA	1.05
GACCTAGGCA	0.988
ATGAAACTTG	1.04
TCTGCCTAAA	0.992
TCATGAGAAT	0.986
AACCGCTATT	1.43
CGGGCTTACG	1.03
CTCTAAAATT	1.2
AGGGGGCTAC	0.963
CGTAACCGGG	0.986
CTCGGCCTAA	1.13
GCTGAATAGA	1.04
ATTCATCGGC	1.05
ATGGATGGCA	0.982
CGGCAATTAA	3.93
TTCAAATTCT	0.985
CAATAAACGG	1.01
ATAAGGCTT	1
TGCTTGTTG	1.02
CTTTATACAG	1.02

Sequence	switch fluorescence ratio
GTTTTGCAAT	1.18
TTAGTCCACG	1.01
TTCCTATGGG	0.99
ATGTCTGCTC	1
ATGGACTGTG	1.02
GAGGGCCTTG	0.974
GAGCATAAAT	1.04
TTGCGTTGGA	1.03
CAATCTTATA	0.971
GTAACAATAT	1.17
AGCTGCATC	1.09
ATAGGGCAAT	1.22
GCTCGGCAAT	6.26
ACAGGACAGT	1.06
TCGCGGCCCT	1.02
TGTGCATGAA	0.978
TGTACTTGAA	1
CTCCGGGGTC	2.41
CGGAGAGGAG	0.975
GCATGTATGC	1.02
GAAAGAGAGC	0.956
TTCGCGGGCG	1.03
AGCTGTCTGA	0.984
TTGGCGGTAT	1.02
ACACAGTGGC	1.05
TGGTGCTCG	0.956

Sequence	switch fluorescence ratio
GTAGTGTTCT	0.984
ATAATTAGAC	1
TTCCCTGCCC	1.12
AGATGACATG	1.04
TTGCAGTAAA	0.948
TTTAAAGCAT	1.04
AGATGGTAT	1.02
GCGTTTTCGC	0.99
ACGGGGTCCT	1
GTGATGCCTG	1.05
CCTTCAGGCT	1.06
AAGTTATT	0.988
GATTGGCAGG	1.02
TTCTTATGCT	0.984
ATCTGCGTTA	1.02
CCCTATATTT	1.03
GCACCATAGG	0.993
AGTTGCCATC	1.01
TTATGAATTA	1.03
CATAGTTCGG	0.998
AGACCCGGCA	1.07
TTCAGACGGG	1.02
CGGGTGGCGT	0.957
AGAATATAGC	0.981
ACATAGGTGC	1.36
ACGATTGGCA	1.03

Sequence	switch fluorescence ratio
AGTTCAGTCT	1.02
GAGTGGGCTG	0.945
AATAGGTGCC	1.03
GTGTGTAAAA	0.987
ACACTGTGAA	1.05
GACACGGGGC	1.01
GATAGGACG	1.08
GATCGGTGAG	1.01
ACGCGGCCTA	1.01
GCAGTTTTGC	1
ATGCGGGTT	1.08
GAAGACTAGT	0.988
CGTCGTAGCA	1
TAGTATATTG	0.969
CCATCCGACT	1.16
CATACGGGCC	1.06
TCGAACCCCC	1.01
GGGACGAGCG	1.23
GCAGCTATGG	1.68
AGTGTTTATG	0.996
CGTTCAATAA	1.76
TAATTTTCAT	1.01
TTCGTCCCGG	1.09
AAGACGGTCA	0.988
CCTGCGCGTA	5.76
CACGAGACAG	1.04

Sequence	switch fluorescence ratio
ACAAAAGTAC	1.12
CATTCCAAG	1.03
ACTTATTGTT	0.982
GTTGTTAATA	0.998
CCCGAGGAGA	1.03
TACTAATGA	1.02
ATGACAGAGT	1
AACCAGCAGA	1.06
GGTACGCTCA	1.01
CGTAGTGCTT	1.01
TAGAGCCTAC	0.991
ACTTAGCCTT	1.1
TGTTAGGGCC	1.04
CAACCGATCT	1.03
TGGGTCCTAG	0.956
GTCAACTGTA	0.979
AATAGAATGT	1
CATGTCCGGC	0.966
TCCTTACGTC	1.12
CAGGCAGTCC	1.01
TTACTGACAG	1.12
CGAGACATGT	1
GCGTTTGCG	0.987
GGTGTGACGA	1.04
ACATCGGAGC	1.04
GCCTTCTGAC	1.91

Sequence	switch fluorescence ratio
CTGGCAGTTG	1.01
TAAGACGAAC	1.36
ATGGGGCCCG	0.971
TCCACTTTAG	1.03
CCTTGTCATC	1.16
ATTTCGCCGG	0.996
TCCAACCGAC	2.39
TGCCAGCAGC	1.03
TGTGACTGG	0.967
TCTGAAGTCG	1.08
CAGGTGAATT	1.3
GTGGCATCGC	1.01
CAGTGCGGAA	1.07
CCGTCGATGC	1.13
GTTGTGGAGG	0.955
AGTGCCTAGT	0.976
GAAAAGTACG	1.02
GAGTGTTGGC	0.995
ATTTAGTGT	0.998
TAACACTTGT	1.02
TAGATGAACT	1.02
AACCCATATT	0.977
CACTCAGCGT	1.14
TGGTCGCCTT	0.996
AACTTTGAC	1.06
TGTCG	1.01

Sequence	switch fluorescence ratio
TTATTTGAAG	0.966
GGGTTTAGG	1
ACTGGTTCTG	0.972
TCGTAAAAAT	1.08
GGCCATTCCT	1.01
TATCCGCTAT	4.98
CAACCTTTAA	0.993
AATGCTCG	1.06
ACGTCTTCTG	1.04
AATGTGGAAA	1.01
CCCTGGTCTT	0.974
GTAGCTCATG	1.05
ATTGGAACGG	1.03
CACGGGATG	1.03
TTCAAGCTAT	1.02
GGTCTCTGTC	0.972
AGTGAAGTCG	0.991
TGGGTGGTCC	1
ACGGACAGTG	0.988
